According to paper PMC9574860, “Chemical Toolkit for PARK7: Potent, Selective, and High-Throughput” (Journal of Medicinal Chemistry, 2022):
Hit rate of the full screen: of about 7,900 compounds, about 400 (5.1%) showed an effect of 50% or more. The list shows a part of the results.

biological target: Parkinson's disease protein 7 (PARK7/DJ1) (human, UniProt Q99497); assay: primary screen, percent inhibition; read as competition with a fluorescent probe by fluorescence polarization; higher = more effect of the substance; conditions: 100 µM
Sequence (Q99497 whole entry, looked up, the tested form may be a part): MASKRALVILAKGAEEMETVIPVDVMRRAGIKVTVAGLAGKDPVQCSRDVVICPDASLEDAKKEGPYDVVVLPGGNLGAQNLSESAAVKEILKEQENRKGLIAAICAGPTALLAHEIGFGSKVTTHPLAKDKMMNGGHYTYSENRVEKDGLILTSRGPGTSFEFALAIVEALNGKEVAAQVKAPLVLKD
How it was run: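 Covalent fragments at 100 μM final were incubated 2 h with 0.2 μM PARK7, then 20 nM probe JYQ-107 added for a further 2 h. Fluorescence polarization read at 480/520 nm; relative FP loss versus reference controls gave remaining enzyme activity.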

Compound | Inhibition %
C=CC(=O)N(C)C1CS(=O)(=O)C1 | 5.08%
N#Cc1cccc(NC[C@H]2CCO[C@@H]2c2ccccc2)n1 | 3%
C=CC(=O)NC(CC1CCCCC1)c1ncccn1 (stereo not drawn) | 8.7%
O=C(CCl)N(C1CC1)C1CCS(=O)(=O)C1 (stereo not drawn) | 5.73%
Cc1cc(Br)ccc1NC(=O)CCl | 19.7%
COc1cc(C(C)Nc2ccc(C#N)nc2)ccc1F (stereo not drawn) | 2.94%
O=C1NC(C2CC2)C1C1CC1 (stereo not drawn) | 6.35%
COc1ccc(C2=CCN(C(=O)CCl)CC2)cc1 | 78.7%
CCOC1CC(c2nc(-c3cccc(B(O)O)c3)no2)C1 (stereo not drawn) | -4.81%
C=CC(=O)NCc1ccc(S(=O)(=O)N2CCOCC2)s1 | 6.6%
C=CC(=O)N1CCN(C)CC1c1ccccc1 (stereo not drawn) | 8.61%
C=CC(=O)NC1CCSC1C (stereo not drawn) | 9.61%
C=CC(=O)N(C)CC(=O)Nc1csc(C)n1 | 7.47%
CC1(C)OB(CC2CCNCC2)OC1(C)C.Cl | 2.79%
COC(=O)c1ccccc1N(C)C(=O)CCl | 6.59%
O=C(NCC1CCC(O)C1)c1ccc(B(O)O)cc1 (stereo not drawn) | 4.59%
C=CC(=O)Nc1cnc(C)nc1C1CC1 | 5.59%
C=CC(=O)Nc1ccc(Cl)c(C#N)c1 | 2.87%
O=C(Cc1cccc(F)c1)N1CCCCC1C1OCCO1 (stereo not drawn) | 12.6%
C=CC(=O)NCC1CC(C)(C)CO1 (stereo not drawn) | 2.97%
Cc1nc(C)c(CNc2ccc(C#N)nc2)s1 | 3.4%
O=C(c1cccnc1S)N1CCc2ccc(O)cc2C1 | 19.6%
Nn1cc(-c2ccccc2)nc1SC1CCOC1=O (stereo not drawn) | 15.6%
N#Cc1ncn(CC2CCCO2)n1 (stereo not drawn) | 1.91%
CC(C)NC(=O)C(C#N)=Cc1cccc(O)c1 | 19.6%
Cc1ccc(C=CC(=O)N2CC(=O)Nc3ccccc32)o1 | 15.2%

Compound | Inhibition %
N#Cc1cccc(N2CCC2=O)c1 | 5.65%
CN1C(=O)CCc2cc(B3OC(C)(C)C(C)(C)O3)ccc21 | 5.05%
CN1CCC(n2cc(-c3ccc(S(=O)(=O)F)cc3)nn2)C1=O (stereo not drawn) | 9.08%
Cc1ccc(NC(=O)CCl)c([N+](=O)[O-])c1 | 7.84%
CN(Cc1ccc2c(c1)OCCO2)C(=O)CCl | 91.9%
CC(C)C(=O)Nc1ccc(C(=O)CCl)cc1 | 2.39%
CN(C)c1cc(B2OC(C)(C)C(C)(C)O2)ccn1 | 12.6%
O=C(O)C1(NS(=O)(=O)C=Cc2ccccc2)CCCC1 | 8.31%
COc1nccc(B2OC(C)(C)C(C)(C)O2)c1Br | 1.49%
C=CC(=O)NC1CC(=O)N(C)C1 (stereo not drawn) | 16.5%
C=CC(=O)NCc1cc(OC)no1 | 6.84%
CC1(c2cccc(C(F)(F)F)c2)CO1 (stereo not drawn) | 8.47%
NC(=O)c1c(NC(=O)CCl)sc2c1CCC2 | 38.6%
COC1CCC(=CC#N)CC1 (stereo not drawn) | 4.49%
Cc1ccc(C=CC#N)cc1 | 5.61%
CCn1c(SC2CCOC2=O)nc2ccccc2c1=O (stereo not drawn) | 33.4%
Cc1ccc(NC(=O)CCl)cc1S(=O)(=O)N(C)C | 10.4%
Cc1ccc(S(=O)(=O)N2CCCC(C3OCCO3)C2)cc1 (stereo not drawn) | 7.16%
C=CC(=O)NC1(c2ccc(OC)c(F)c2)CCOCC1 | 11.7%
C#CCN(C)S(=O)(=O)c1ccc(C#N)nc1 | 5.89%
OB(O)c1cc(F)ccc1OCC1CCCO1 (stereo not drawn) | 5.41%
C=CC(=O)Nc1ccc2c(c1)OCC(=O)N2C | 40.9%
C#CC(=O)c1ccccc1 | -3.07%
C=CC(=O)N1CCOC(c2cccs2)C1 (stereo not drawn) | 8.52%
CC1CC(Sc2nnc(-c3ccco3)o2)C(=O)O1 (stereo not drawn) | 1.96%
Sc1ncnc2ccsc12 | 7.25%

Compound | Inhibition %
CN(C)CC=CC(=O)NCC1(O)CCCc2ccccc21 (stereo not drawn) | 7.43%
CCOc1ccc(Cl)cc1S(=O)(=O)n1ccnc1 | 10.2%
CCCn1c(S)nc2ccccc2c1=O | 1.74%
C=CC(=O)N1CCN(c2ccc(OC)cn2)CC1 | 5.59%
Cc1nc(C)n(CCCl)n1.Cl | 4.09%
C=CC(=O)NC(C)c1oc2ccc(OC)cc2c1C (stereo not drawn) | 0.0978%
CC1CCCN(C(=O)C=Cc2cncc(F)c2)C1CN (stereo not drawn) | 3.68%
COCC(C)n1c(C)cc(C=C(C#N)C(N)=O)c1C (stereo not drawn) | 2.81%
O=C(c1cccnc1S)N1CCC(C2CCOCC2)CC1 | 12.1%
OB(O)c1cnn(-c2cccc(C(F)(F)F)c2)c1 | 10.7%
O=C(CCl)Nc1cc(C(F)(F)F)cc(C(F)(F)F)c1 | 8.7%
Clc1ccccc1COCC1CO1 (stereo not drawn) | 9.97%
O=S(=O)(c1ccc(Cl)cc1)n1cccn1 | -0.854%
O=C(Cn1c(S)nc2ccccc2c1=O)NCCCF | 2.06%
O=C(Oc1ccc(Cl)c2cccnc12)N1CCCC1 | 1.25%
COc1ccc(Cl)cc1S(=O)(=O)n1cccn1 | 2.42%
C=CC(=O)N1CC(Cc2ccc(C)cc2)C1 | 2.16%
CC1COCCN1Cn1nc(-c2ccc(F)cc2)oc1=O (stereo not drawn) | 7.55%
N#Cc1nc(Cl)ccc1Cl | 1.89%
CC1CCN(C(=O)CCl)CC1 | 14.9%
CC(NC(=O)CCl)c1cccc2ccccc12 (stereo not drawn) | 5.24%
COc1cc(C)c(C)cc1S(=O)(=O)n1cnc(C)c1 | 6.69%
Nc1c(C(=O)CCl)c(=O)[nH]c(=O)n1C1CC1 | 6.34%
CC(C)N1CCOC(CCl)C1 (stereo not drawn) | 5.12%
O=C1CCN1c1ccc(C(F)(F)F)cc1 | -0.967%
C=CC(=O)N1CC(COC)(C2CC2)C1 | 8.62%

Compound | Inhibition %
Cc1cc(C(=O)CCl)c(C)[nH]1 | 98.2%
C=CC(=O)NC1CCN(c2cccc(F)c2)CC1 | -0.875%
Cc1nc(C)n(C(=O)N2CCOCC2)n1 | 12.2%
CC1(COS(C)(=O)=O)COC1 | 18.4%
C=CC(=O)NC1CCN(c2ncccc2F)C1 (stereo not drawn) | 14.9%
CCOc1ccc(C=O)c(O)c1 | 12.4%
O=C1CN=C(S)N1c1ccc(Cl)cc1 | -0.469%
C=CC(=O)Nc1nc(C2CC2)cs1 | 7.88%
O=c1onc(-c2cnccn2)n1Cc1cccc(F)c1F | 14.9%
N#CC(=Cc1csnn1)c1ccccn1 | 6.94%
C=CC(=O)N1CCOC(c2ccccc2C(F)(F)F)C1 (stereo not drawn) | 0.855%
NC(=O)CC1(NS(=O)(=O)C=Cc2ccccc2)CCC1 | 2.61%
c1cc2c(cc1COCC1CO1)OCO2 (stereo not drawn) | 3.59%
C=CC(=O)N1CCOC(COC)C1 (stereo not drawn) | 13.6%
O=S(=O)(C=Cc1ccccc1)NCc1ccccc1 | 8.21%
COc1ccccc1CNC(=O)CCl | 28%
Cc1ccn(S(=O)(=O)c2ccc(C)c(C)c2C)n1 | 1.17%
O=C1OCCC1Sc1nnc(-c2ccc(Cl)cc2)[nH]1 (stereo not drawn) | 47.6%
Cc1noc(CCNS(=O)(=O)C=Cc2ccccc2)n1 | 3.42%
Cc1ccn(S(=O)(=O)c2ccc(C)c(C)c2)n1 | 5.98%
N#Cc1ccc(N2CCSCC2)cn1 | 6.47%
Cc1cc(CC(C)NC(=O)c2cccnc2S)n[nH]1 (stereo not drawn) | 5.43%
C=CC(=O)Nc1cc(C(F)(F)F)n[nH]1 | 9.56%
C=CC(=O)NCc1cc(C)on1 | 8.31%
C=CC(=O)NCCc1c(C)oc2ccccc12 | 5.03%
Cc1cc(C=C(C#N)C(=O)O)ccc1Oc1cccnc1 | 29.4%

Compound | Inhibition %
C#CC(=O)c1ccc(OC)cc1 | 3.18%
Cc1cc(C(=O)CCl)c(C)n1-c1ccon1 | 82.8%
CCn1cc(S(=O)(=O)Oc2cccc(F)c2)nc1C | 3.67%
CC(C)CCNS(=O)(=O)C=Cc1ccccc1 | 10.5%
C=CC(=O)NC1CCCOc2ccccc21 (stereo not drawn) | 5.96%
COc1ccc(CN(C)C(=O)CCl)cc1 | 61.5%
C=CCNS(=O)(=O)C=Cc1ccccc1 | 7.29%
O=S1(=O)CCCN1c1cccc(NCc2ccc(B(O)O)cc2)c1 | 12.3%
Cc1oc(C(N)=O)cc1C(=O)CCl | 30.9%
N#Cc1ncn(CC(=O)NCc2ccc(F)cc2)n1 | 8.52%
CCc1ccccc1NC(=O)CNC(=O)CCl | 9.85%
COc1cccc(NC(=O)CN(C)C(=O)CCl)c1 | 95.9%
Cc1ccc(C=C(C#N)C(=O)O)cc1 | 5.59%
C#Cc1ccc(NC(=O)C=C)cc1 | 28.3%
COCCn1c(C)cc(C(=O)CCl)c1C | 49.1%
C=CC(=O)Nc1cc(CC(C)(C)C)nn1C | 8.54%
CC(=O)N1CCCC(S(=O)(=O)Oc2cccc(F)c2)C1 (stereo not drawn) | 4.42%
CCOc1cc(C)c(Cl)cc1S(=O)(=O)n1ccnc1 | 2.09%
O=C(CCl)N1CCNC1=O | 78%
CC(C)C1(c2ccccc2)CO1 (stereo not drawn) | 4.43%
O=C(CCl)NNc1c(Cl)cc(Cl)cc1Cl | 3.13%
CS(=O)(=O)N1CCN(C(=O)Oc2ccccc2)CC1 | 10.1%
